Values of other authors in paper PMC11006913.
This is one part of the list.

How the values were obtained:
Settings in all cases: PBM; conditions not shown; double strand, one strand shown; scale: upbm affinity estimate (log intensity, higher = more binding, comparable within an allelic series)
ARX (Homo sapiens) = ARX (Homo sapiens) (UniProt Q96QS3)
ARX L343Q (Homo sapiens) = ARX L343Q (Homo sapiens) (UniProt Q96QS3)
ARX P353L (Homo sapiens) = ARX P353L (Homo sapiens) (UniProt Q96QS3)
ARX P353R (Homo sapiens) = ARX P353R (Homo sapiens) (UniProt Q96QS3)
ARX R332H (Homo sapiens) = ARX R332H (Homo sapiens) (UniProt Q96QS3)
ARX T333N (Homo sapiens) = ARX T333N (Homo sapiens) (UniProt Q96QS3)

Sequence | binding signal (ARX (Homo sapiens)) | binding signal (ARX L343Q (Homo sapiens)) | binding signal (ARX P353L (Homo sapiens)) | binding signal (ARX P353R (Homo sapiens)) | binding signal (ARX R332H (Homo sapiens)) | binding signal (ARX T333N (Homo sapiens))
GCAACCGC [8-mer GCAACCGC] | 10.1 | 10.2 | 10.2 | 10.2 | 10.2 | 10.3
AGCCCCCG [8-mer AGCCCCCG] | 10.2 | 10 | 10.1 | 9.86 | 9.97 | 10.2
CAGCCGCC [8-mer CAGCCGCC] | 10.1 | 10.1 | 10.1 | 9.96 | 10.1 | 10.2
CAATTTAG [8-mer CAATTTAG] | 12 | 10.8 | 11.6 | 10.7 | 10.9 | 11.4
ATCGATTA [8-mer ATCGATTA] | 12.2 | 11 | 12.3 | 10.9 | 11.1 | 11.5
GGCCACCC [8-mer GGCCACCC] | 10.1 | 10 | 10.2 | 9.99 | 10.1 | 10.2
CACCGCCG [8-mer CACCGCCG] | 10.2 | 10.2 | 10.2 | 10.1 | 10.1 | 10.2
CTGCGCTC [8-mer CTGCGCTC] | 10.2 | 10.2 | 10.1 | 10.2 | 10.2 | 10.2
GCCCCTCC [8-mer GCCCCTCC] | 10.1 | 10.2 | 10.2 | 10 | 10.2 | 10.3
GCTAATCA [8-mer GCTAATCA] | 12.6 | 10.8 | 12.2 | 10.8 | 10.9 | 11.5
GGGGGGCA [8-mer GGGGGGCA] | 10.1 | 9.99 | 10 | 9.81 | 9.88 | 10.1
GGCCGAAC [8-mer GGCCGAAC] | 10.3 | 10.2 | 10.3 | 10.2 | 10.2 | 10.2
CCGCCCCC [8-mer CCGCCCCC] | 9.9 | 9.97 | 9.94 | 9.84 | 9.76 | 10.1
CCCCACGC [8-mer CCCCACGC] | 10.1 | 10.1 | 10.1 | 9.95 | 10.1 | 10.2
CGCAGCGC [8-mer CGCAGCGC] | 10.1 | 10.1 | 10.1 | 10 | 10.2 | 10.2
GACCCCCA [8-mer GACCCCCA] | 10.2 | 10.1 | 10.2 | 9.93 | 9.93 | 10.2
AGGGACCG [8-mer AGGGACCG] | 10.3 | 10.2 | 10.4 | 10.2 | 10.1 | 10.2
CCCAGGGC [8-mer CCCAGGGC] | 10.1 | 10.1 | 10.1 | 10.1 | 10.2 | 10.3
CGCCGCTA [8-mer CGCCGCTA] | 10.2 | 10.1 | 10.2 | 10.1 | 10.1 | 10.4

Sequence | binding signal (ARX (Homo sapiens)) | binding signal (ARX L343Q (Homo sapiens)) | binding signal (ARX P353L (Homo sapiens)) | binding signal (ARX P353R (Homo sapiens)) | binding signal (ARX R332H (Homo sapiens)) | binding signal (ARX T333N (Homo sapiens))
GCCACGGC [8-mer GCCACGGC] | 10.1 | 10.1 | 10.1 | 10.1 | 10.2 | 10.3
GCTGGCCC [8-mer GCTGGCCC] | 10.2 | 10.1 | 10.2 | 10.1 | 10.1 | 10.2
GCTTTGCC [8-mer GCTTTGCC] | 10.4 | 10.3 | 10.4 | 10.3 | 10.2 | 10.4
CCGGACCC [8-mer CCGGACCC] | 10.1 | 10.1 | 10.1 | 10 | 10 | 10.2
ACCGGCAG [8-mer ACCGGCAG] | 10.2 | 10.3 | 10.2 | 10.1 | 10.2 | 10.2
AAGCCCCC [8-mer AAGCCCCC] | 10.3 | 10.1 | 10.3 | 9.92 | 9.97 | 10.3
CCGCCCGG [8-mer CCGCCCGG] | 9.97 | 10 | 10.1 | 9.87 | 10 | 10.1
GCGCGAGC [8-mer GCGCGAGC] | 10.1 | 10.1 | 10.2 | 10.1 | 10.2 | 10.2
GCCGACCC [8-mer GCCGACCC] | 10 | 9.9 | 10.1 | 9.88 | 9.92 | 10.1
CCAGACGG [8-mer CCAGACGG] | 10.2 | 10.2 | 10.2 | 10.2 | 10.1 | 10.2
GGAGCTCC [8-mer GGAGCTCC] | 10 | 9.95 | 10.3 | 10 | 10 | 10.1
CGCCACGC [8-mer CGCCACGC] | 10 | 10 | 10 | 9.98 | 10.1 | 10.1
GACGCCCC [8-mer GACGCCCC] | 10.2 | 10 | 10.2 | 10 | 10 | 10.3
GACCAGGC [8-mer GACCAGGC] | 10.3 | 10.1 | 10.4 | 10.1 | 10.1 | 10.2
AGCGGAGG [8-mer AGCGGAGG] | 10.2 | 10.2 | 10.2 | 10.1 | 10.2 | 10.3
GGCGGAAC [8-mer GGCGGAAC] | 10.2 | 10.1 | 10.2 | 10.1 | 10.1 | 10.2
CGAAGGGC [8-mer CGAAGGGC] | 10.1 | 10.1 | 10.1 | 10.2 | 10.2 | 10.1
CTTGGGGC [8-mer CTTGGGGC] | 10.1 | 10.2 | 10.3 | 10.1 | 10.2 | 10.3
